In PubChem BioAssay AID463173 (ICCB-Longwood Screening Facility, Harvard Medical School, 2010):
Screen size: about 52,000 compounds; about 1,700 (3.3%) were called active. Cut-off read from the data, not from the text of the source: active = survival mostly below about 52% (no sharp cut-off); inactive = mostly above about 56%. Some of the results follow.

Test system: Wild type
Test: S. aureus survival, RN4220 and DeltatarO strains – OD600, teichoic acid synthesis inhibitors, primary screen (AID 463173)
Details: S. aureus RN4220 wild type/DeltatarO growth, OD600, 18 h, hits give low values, screened at 18.75 µg/mL (by protocol)

Row | SMILES | survival
1 | COC(=O)c1ccccc1-n1c(CCC(=O)O)ccc1-c1ccccc1 | inactive: 127%
2 | COc1cccc(CNC(=O)c2ccc3c(c2)nc2n3CCC(C)C2)c1OC (configuration not stated) | inactive: 73%
3 | O=C(NCc1ccccc1Cl)c1cc2cccc3c2n1CCS3 | inactive: 115%
4 | CC(C)Oc1ccc(CNC(=O)Cn2ncn3nc(-c4cccs4)cc3c2=O)cc1 | inactive: 101%
5 | COc1ccc(CC(C(=O)O)c2ccccc2)cc1 (configuration not stated) | inactive: 99%
6 | CCOC(=O)C1CCCN(C(=O)c2[nH]c3ccccc3c2Sc2ccc(Cl)cc2)C1 (configuration not stated) | inactive: 75%
7 | c1ccc(N2CCN(c3ccccc3)C2c2cccs2)cc1 | inactive: 109%
8 | CCOC(=O)Cc1cc(=O)[nH]c(/N=C(\N)Nc2cccc(Cl)c2)n1 | inactive: 87%
9 | O=C(c1cccs1)N1CCC(Cc2ccccc2)CC1 | inactive: 110%
10 | COc1ccc(C(=O)NCC(c2ccco2)S(=O)(=O)c2cccs2)cc1OC (configuration not stated) | inactive: 130%
11 | Cc1ccnc(NS(=O)(=O)c2ccc(NC(=O)c3nc(SC(C)C)ncc3Cl)cc2)n1 | inactive: 85%
12 | O=C1CCN(C(=O)/C=C/c2ccccc2)c2ccccc21 | inactive: 112%
13 | Cc1cc(C)c2oc(C(=O)Nc3c(C(=O)Nc4ccccc4)oc4ccccc34)cc(=O)c2c1 | inactive: 92%
14 | Cn1c(SCc2ccc(F)cc2)nc2ccc(C(=O)NCc3ccccc3)cc21 | inactive: 61%
15 | CCCCn1cc(S(=O)(=O)c2ccc(Cl)cc2)c(=O)c2cc(F)c(N3CCCCC3)cc21 | inactive: 105%
16 | Cc1ccc(OCC(=O)Nc2ccc(S(=O)(=O)N(Cc3ccccc3)c3ccccc3)cc2)cc1 | inactive: 91%
17 | Cc1cccc(C(=O)Nc2ccccc2C(=O)OCc2cc(=O)n3nc(C4CC4)sc3n2)c1 | inactive: 79%
18 | CCOC(=O)c1c(-c2ccc(OC)c(OC)c2)csc1NC(=O)c1ccc(F)cc1 | inactive: 72%
19 | COc1cc2c(-c3ccccc3Cl)nc3c(c(C)nn3-c3ccccc3)c2cc1OC | inactive: 73%

Row | SMILES | survival
20 | CC1(C)OC(c2ccccc2)CC1=O (configuration not stated) | inactive: 98%
21 | COc1ccccc1CNC(=O)c1c(O)nc2cc(C)ccn2c1=O | inactive: 84%
22 | Cc1nc2ccc(S(=O)(=O)NC(C(=O)NCc3ccc(Cl)cc3)C(C)C)cc2s1 (configuration not stated) | inactive: 133%
23 | CCc1ccc2occ(CC(=O)Nc3sc4c(c3C(=O)OC)CCC4)c2c1 | inactive: 85%
24 | O=C(C1CCN(c2nc3ccccc3[nH]2)CC1)N1CCN(c2cccc(Cl)c2)CC1 | active: 0%
25 | CSC1=NC2(CCN(C(=O)NC3CCCCC3)CC2)N=C1c1ccc(C(C)(C)C)cc1 | inactive: 80%
26 | COc1cccc(N2C(=O)CSC23C(=O)N(CC(=O)NCc2ccc(C)cc2)c2ccccc23)c1 (configuration not stated) | inactive: 68%
27 | CCCN(CCC)CCCNC(=O)c1cn(CC)c2ccc(S(=O)(=O)N3CCc4ccccc4C3)cc2c1=O | inactive: 81%
28 | COc1cccc(CNCCSc2nnnn2C)c1OCc1ccc(Cl)cc1 | inactive: 84%
29 | CCOC(=O)c1ccc2c(c1)N(CC(=O)Nc1ccc(CC)cc1)C(=O)c1ccccc1S2 | inactive: 60%
30 | Cc1ccc(Nc2c(-c3ccc(N4CCOCC4)cc3)nc3ncccn23)cc1C | inactive: 92%
31 | COc1cc(NC(=O)Cn2cnc3sc(C)c(S(=O)(=O)N4CCN(C)CC4)c3c2=O)cc(OC)c1OC | inactive: 145%
32 | CN(C(=O)c1cc2sccc2n1Cc1ccc(F)cc1)C1CCCCC1 | inactive: 130%
33 | COCCNC(=S)N1CCC(NC(C)=O)CC1 | inactive: 100%
34 | CCc1ccc(Cn2nnc(C(=O)Nc3ccc(C)cc3)c2N)cc1 | inactive: 142%
35 | CC(C)c1ccc(NC(=O)C2CCCN(S(=O)(=O)c3ccc4[nH]c(=O)ccc4c3)C2)cc1 (configuration not stated) | inactive: 109%
36 | COc1ccc2nc(Cl)c(CNC3CCCC3)cc2c1 | inactive: 101%
37 | CCOc1cccc(C(=O)Nc2ccc(NC(=O)c3ccc(Br)cc3)cc2)c1 | inactive: 168%
38 | CCOC(=O)c1ccc(NC(=O)CC2C(=O)N(c3ccccc3)C(=O)N2C2CCCCC2)cc1 (configuration not stated) | inactive: 69%

Row | SMILES | survival
39 | CCN(c1ccc(C)cc1C)S(=O)(=O)c1nnc(NC(=O)c2ccccc2OC)s1 | inactive: 58%
40 | CCOC(=O)c1oc2ccc(S(=O)(=O)n3nc(-c4cc(OCC)c(OCC)c(OCC)c4)cc3N)cc2c1C | inactive: 83%
41 | O=C(CSc1nnc(-c2ccccc2)o1)Oc1ccc(Br)cc1 | inactive: 98%
42 | O=C(CSc1oc(-c2ccco2)nc1S(=O)(=O)c1ccccc1)c1ccc(Cl)cc1 | inactive: 67%
43 | COc1cccc(/C=N/NC(=O)c2cccc(C)c2)c1O | active: 1%
44 | COc1ccc(-n2cc(-c3ccccc3)c3c(NCCc4ccc(OC)c(OC)c4)ncnc32)cc1 | inactive: 135%
45 | CCN1CCN(c2cc3c(cc2F)c(=O)c(S(=O)(=O)c2cc(C)cc(C)c2)cn3CC)CC1 | active: -3%
46 | CCOC(=O)c1ccc(NC(=O)c2c(NCc3cc(OC)c(OC)cc3OC)sc3c2CCCC3)cc1 | inactive: 85%
47 | CCc1ccc(N2CCn3c2nc2c3c(=O)n(CCCc3ccccc3)c(=O)n2C)cc1 | inactive: 88%
48 | CCCc1cnc2c(c1SCC(=O)Nc1cccc(C)c1C)c(=O)n(C)c(=O)n2C | inactive: 73%
49 | CC(C)NC(=O)C1CCN(Cc2ccccc2Cl)CC1 | inactive: 114%
50 | COc1ccc(NC(=O)Cn2nnc(C(=O)Nc3ccc(C)c(F)c3)c2N)cc1Cl | inactive: 128%
51 | CC1=C(C(=O)OCC2CCCCC2)C(c2cccc(F)c2F)CC(=O)N1 (configuration not stated) | inactive: 89%
52 | Cn1c(=O)oc2cc(S(=O)(=O)N3CCCC(C(=O)N4CCN(c5cccc(Cl)c5)CC4)C3)ccc21 (configuration not stated) | inactive: 73%
53 | O=C(NCCCCc1ccccc1)c1nn(-c2ccccc2)nc1CO | inactive: 74%
54 | Cc1ccc(-n2c(-c3ccco3)nc3c(cnn3-c3ccc(C)cc3)c2=O)cc1 | inactive: 92%
55 | O=C(Cc1ccccc1F)N1CCC(c2nc3c(nnn3Cc3cccc(Cl)c3)c(=O)[nH]2)CC1 | inactive: 67%
56 | Cc1cc(C)cc(OCCn2c(CCNC(=O)C3CCCCC3)nc3ccccc32)c1 | inactive: 105%
57 | O=C(CC1(O)C(=O)N(Cc2ccccc2)c2ccc(Br)cc21)c1ccccc1 (configuration not stated) | inactive: 30%
